{"source": "patent US20200002401A1", "about": "“CD44 BINDING PEPTIDES” (EXCHANGE IMAGING TECHNOLOGIES GMBH, priority 2013, published 2020)", "key": {"CD44v5 peptide": {"target": "T1, CD44v5 peptide (Homo sapiens, UniProt P16070)", "T1 construct": "expressed in transfected cells; host or cells: yeast (two-hybrid reporter strain)", "T1 sequence (P16070 346-384)": "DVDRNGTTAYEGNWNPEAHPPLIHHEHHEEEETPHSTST", "test": "FDG assay of the deletion mutants of peptide B (FIG. 19)", "format": "binding", "conditions": "compared with peptide B", "excerpt": "The FDG assay is based on the reporter system of the two hybrid scanning system. Hereby the GAL4-binding domain with the CD44v5 peptide interacts with the respective peptides fused to the GAL4-actvation domain. After complex formation two independent reporter genes are activated, the first one encodes a fluorescent protein, the second reporter gene encodes the enzyme beta-galactosidase, whose enzymatic activity can be determined by using the fluorogenic substrate Fluorescein di-beta-D-galactopyranoside (FDG).\nThe peptides were comparatively tested in the PHP and the FDG assay."}, "[1]": {"system": "mucinous adenocarcinoma tissue (sample No. 35)", "test": "Labelling of tumor tissue sections with bispecific nanoparticle, with and without free targets", "parameters": "species or system human", "conditions": "MBP-CEA 25 μM or Sialyl Lewisa 250 μM; FIG. 12", "protocol": "In a separate set of experiments, a sample taken from a human tumor was used. The tumor sample No. 35 was resected in 2011 from coecum and was diagnosed as a mucinous adenocarcinoma. It was classified according the TNM classification as pT4No(0/18)G3Ro. This sample which was not otherwise pretreated was prepared and fixed as follows.\nThe resected tumor sample, stored at −70° C. was used to prepare cryosections with a thickness of 5 μm using a HM560 MV cryostate. (Thermo Scientific, Walldorf, Germany). The sections were dried for 60 to 120 min at room temperature and incubated with cold acetone (−20° C.) for 10 minutes. After a further drying step for 10 min at room temperature, the sections were stored over night at −70° C.\nThe sections were defrosted in a closed box for 30 min at room temperature. Fixation was performed by incubation in a solution containing 20 mg/ml dimethyl suberimidate (DMS) and in 20 mM CaCl2 in 250 mM Tris-HCl buffer pH 8.0. […]\nThe sections as prepared above were evaluated with a reverse microscope Axiovert 200 with Axiocam HrM and a Axiocam Hrc CCD camera system, HXP 120 C illuminating device. The pictures were analysed using the Axiovision software (version 4.8; Carl Zeiss, Oberkochen, Germany). […]"}, "[2]": {"system": "human colon carcinoma cell line HCT-116", "test": "Immunocytochemical analysis of CD44v5-expressing tumor cells with peptide-coupled quantum dots", "format": "cell-based", "excerpt": "In order to underscore the diagnostic and therapeutic potency of the CD44ex9-binding proteins, the peptides A, B and C were expressed as MBP-fusion proteins containing a His-tag, coupled to quantum dots and used for immunocytochemical analysis of CD44-expressing tumour cells.\nThe peptides were expressed as MBP-(YTH_v5_A/B/C)-His6 fusion proteins in E. coli, purified using Ni-NTA affinity chromatography and coupled via the His6-Tag to the QDBP-655 quantum dots.\nThe expressed and affinity-purified peptides A, B or C are dialysed for 2 hours against 50 mM sodium borate pH=8.3 (Slide-A-Lyzer Mini Dialysis Unit 10 KDa; (Thermo Fisher, Rockford, Ill., USA). Afterwards the protein concentration is determined and the solution diluted to the required concentration. The QDBP-655 quantum dot and the protein are mixed together to an end concentration of 0.3 μM (QDBP-655) in QDBP-655/ligand ratios of 1:12.5, 1:25, 1:50, 1:75 and 1:100 in sterile borosilicate vials as summarized in the following table: […]"}}, "note": "Where no end group is shown, it is not given here.", "data": [{"substance": "PGQLSFEVQWETSETLKILVKPLVFVCREVYDPPC (PGQLSFEVQWETSETLKILVKPLVFVCREVYDPPC; listed as Homo sapiens) [Peptide B1, peptide B with N-terminal deletion of 18 amino acids]", "values": [{"measurement": "ability to bind to CD44v5 (deletion mutants of peptide B)", "setting": "CD44v5 peptide", "result": "slightly decreased activity"}]}, {"substance": "Sialyl-Lewisa", "values": [{"measurement": "effect of free target on labeling by the bispecific nanoparticle", "setting": "[1]", "result": "inhibits the interaction with the cellular CA19-9 antigen"}]}, {"substance": "nanoparticles coupled to peptide A: peptide A expressed as MBP fusion protein with His6-tag, coupled to QDBP-655 quantum dots (PGVPGVQLTANTQSLVLMSAFDIAIEVTFISSHHHHHH; also: expressed as MBP fusion protein, coupled to QDBP-655 quantum dots)", "values": [{"measurement": "colocalization with labeling by anti-CD44v5 antibody (positive control)", "setting": "[2]; HCT-116, VFF-7", "result": "colocalizes with the labeling as generated by the anti-CD44v5 antibody"}, {"measurement": "labelling of HCT-116 tumour cells", "setting": "[2]; Qdot-peptide conjugates 100 nM, FIG. 22", "result": "labelling of the tumour cells could be observed"}]}]}
